Ki data for 42 molecules are collected here from patent US8067379B2, “Sulfur compounds as inhibitors of hepatitis C virus NS3 serine protease” (Schering Corporation, priority 2004, dated 2011).

For orientation: Ki means the dissociation constant of the complex between target and ligand, obtained from inhibition or displacement.

The first test deals with Recombinant heterodimeric HCV NS3/NS4A protease (strain 1a) (Hepatitis C virus genotype 1a, UniProt P27958). In words: Spectrophotometric assay for HCV serine protease inhibitory activity (chromogenic ester substrates). Particulars: Table 3, sulfide compounds; HCV serine protease; read-out: Ki* range. The class given is biochemical.
`CC(C)[C@@H](CSCc1ccccc1)NC(=O)N[C@H](C(=O)N1C[C@H]2[C@@H]([C@H]1C(=O)NC(CC1CCC1)C(=O)C(N)=O)C2(C)C)C(C)(C)C` (stereo partly drawn) [Compound 106]: the Ki fell in the range of 0.075 to 0.25 µM.

The same test, now with this note: Table 3, sulfone compounds, rows without Prep. Ex. number; read-out: Ki* (numeric value, unlabelled structures at end of sulfone table, column without head).
With `C=CCNC(=O)C(=O)C(CC1CC1)NC(=O)[C@@H]1[C@@H]2[C@H](CN1C(=O)[C@@H](NC(=O)NC1(CS(=O)(=O)C(C)(C)C)CCCCC1)C(C)(C)C)C2(Cl)Cl` (stereo partly drawn), the Ki was 0.009 µM.

The same test, now with this note: Table 3, sulfone compounds; HCV serine protease; read-out: Ki* range.
Consider `C#CCCC(NC(=O)[C@@H]1[C@@H]2[C@H](CN1C(=O)[C@@H](NC(=O)NC1(CS(=O)(=O)C(C)(C)C)CCCCC1)C(C)(C)C)C2(C)C)C(=O)C(=O)NCCC` (stereo partly drawn) [Compound 248], for which the Ki is under 0.075 µM.
Still for that read-out and setting: the figure for `C=CCNC(=O)C(=O)C(CCCC)NC(=O)[C@@H]1[C@@H]2[C@H](CN1C(=O)[C@@H](NC(=O)N[C@H](CS(=O)(=O)C(C)(C)C)C(C)C)C1CCCCC1)C2(C)C` (stereo partly drawn) [Compound 157] is under 0.075 µM; for `C=CCNC(=O)C(=O)C(CC1CC1)NC(=O)[C@@H]1[C@@H]2[C@H](CN1C(=O)[C@@H](NC(=O)NC1(CS(=O)(=O)C(C)(C)C)CCCCC1)C(C)(C)C)C21CCCC1` (stereo partly drawn) [Compound 292] it is under 0.075 µM.
The same measure, in the same setting: the figure for `C=CCNC(=O)C(=O)C(CCC)NC(=O)[C@@H]1[C@@H]2[C@H](CN1C(=O)[C@@H](NC(=O)N[C@H](CS(=O)(=O)c1ccccn1)C(C)C)C(C)(C)C)C2(C)C` (stereo partly drawn) [Compound 230] is over 0.25 µM; for `C#CCCCC(NC(=O)[C@@H]1[C@@H]2[C@H](CN1C(=O)[C@@H](NC(=O)NC1(CS(=O)(=O)c3ccccc3)CCCCC1)C(C)(C)C)C2(C)C)C(=O)C(=O)NCC=C` (stereo partly drawn) [Compound 172] it is 0.075 to 0.25 µM.
For the molecule `C#CCCNC(=O)C(=O)C(CCC#C)NC(=O)[C@@H]1[C@@H]2[C@H](CN1C(=O)[C@@H](NC(=O)NC1(CS(=O)(=O)C(C)(C)C)CCCCC1)C(C)(C)C)C2(C)C` (stereo partly drawn) [Compound 250], the Ki is under 0.075 µM.
On the same count and under the same terms, the value for `C#CCCC(NC(=O)[C@@H]1[C@@H]2[C@H](CN1C(=O)[C@@H](NC(=O)NC1(CS(C)(=O)=O)CCCCC1)C(C)(C)C)C2(C)C)C(=O)C(=O)NCC#C` (stereo partly drawn) [Compound 184] was under 0.075 µM; that for `C#CCCC(NC(=O)[C@@H]1[C@@H]2[C@H](CN1C(=O)[C@@H](NC(=O)NC1(CS(=O)(=O)C(C)(C)C)CCCCC1)C(C)(C)C)C21CCCC1)C(=O)C(=O)NCC=C` (stereo partly drawn) [Compound 259] was under 0.075 µM.

Staying with this test, now noted: Table 3A; class symbols; read-out: Ki* Range.
On to `C=CCNC(=O)C(=O)C(CC1CC1)NC(=O)[C@@H]1[C@@H]2[C@H](CN1C(=O)[C@@H](NC(=O)NC1(CS(=O)(=O)C(C)(C)C)CC3CCC1C3)C1(C)CCCCC1)C2(C)C` (stereo partly drawn) [Compound 591], for which the Ki is under 0.075 µM.
With `C=CCNC(=O)C(=O)C(CC1CC1)NC(=O)[C@@H]1[C@@H]2[C@H](CN1C(=O)[C@@H](NC(=O)NC1(CS(=O)(=O)C(C)(C)C)CCCCC1)C1CCC(F)(F)CC1)C2(C)C` (stereo partly drawn) [Compound 443], the Ki was under 0.075 µM.
Same read-out and setting: the value for `C=CCNC(=O)C(=O)[C@H](CCCC)NC(=O)[C@@H]1[C@@H]2[C@H](CN1C(=O)[C@@H](NC(=O)NC1([C@H]3CN(C)CCS3(=O)=O)CCCCC1)C(C)(C)C)C2(C)C` [Compound 805] was under 0.075 µM; that for `C=CCNC(=O)C(=O)C(CCC1CC1)NC(=O)[C@@H]1[C@@H]2[C@H](CN1C(=O)[C@@H](NC(=O)NC1(CS(=O)(=O)CC(F)(F)F)CCCCC1)C1(C)CCCCC1)C2(C)C` (stereo partly drawn) [Compound 543] was under 0.075 µM.
Regarding `C=CCNC(=O)C(=O)[C@H](CCCC)NC(=O)[C@@H]1[C@@H]2[C@H](CN1C(=O)[C@@H](NC(=O)NC1([C@@H]3CCCS3(=O)=O)CCCCC1)C(C)(C)C)C2(Cl)Cl` [Compound 814], the inhibition constant Ki is under 0.075 µM.
On the same count and under the same terms, the value for `CC(C)(C)[C@H](NC(=O)NC1(CS(=O)(=O)C(C)(C)C)CCCCC1)C(=O)N1CC2(C[C@H]1C(=O)NC(CC1CC1)C(=O)C(=O)NC1CC1)SCCS2` (stereo partly drawn) [Compound 665] was 0.075 to 0.25 µM; that for `CCCC[C@H](NC(=O)[C@@H]1[C@@H]2[C@H](CN1C(=O)[C@@H](NC(=O)NC1(CS(=O)(=O)C(C)(C)C)CCCCC1)C1(C)CCCCC1)C2(C)C)C(=O)C(=O)NC1CC1` [Compound 866] was under 0.075 µM; that for `C=CCNC(=O)C(=O)C(CCCC)NC(=O)[C@@H]1CC2(CN1C(=O)[C@@H](NC(=O)NC1(CS(=O)(=O)C(C)(C)C)CCCCC1)C(C)(C)C)SCCS2` (stereo partly drawn) [Compound 635] was under 0.075 µM.
On the same count and under the same terms, the figure for `CCCC(NC(=O)[C@@H]1[C@@H]2[C@H](CN1C(=O)[C@@H](NC(=O)NC1(CS(=O)(=O)C(C)(C)CC)CCCCC1)C1(C)CCCCC1)C2(C)C)C(=O)C(=O)NC1CC1` (stereo partly drawn) [Compound 522] is under 0.075 µM; for `C=C(F)CNC(=O)C(=O)C(CCC1CC1)NC(=O)[C@@H]1[C@@H]2[C@H](CN1C(=O)[C@@H](NC(=O)NC1(CS(=O)(=O)C(C)(C)C)CCCCC1)C1(C)CCCCC1)C2(C)C` (stereo partly drawn) [Compound 420] it is under 0.075 µM; for `CCNC(=O)C(=O)[C@H](CCC(F)(F)F)NC(=O)[C@@H]1[C@@H]2[C@H](CN1C(=O)[C@@H](NC(=O)NC1(CS(=O)(=O)C(C)(C)C)CCCCC1)C(C)(C)C)C2(C)C` [Compound 883-cb] it is under 0.075 µM.
Still for that read-out and setting: the figure for `CCCCC(NC(=O)[C@@H]1[C@@H]2[C@H](CN1C(=O)[C@@H](NC(=O)NC1(CS(=O)(=O)C(C)(C)C)CCCCC1)C(C)(C)C)C2(C)C)C(=O)C(=O)NC1CC1` (stereo partly drawn) [Compound 484] is under 0.075 µM; for `CCC(C)(C)S(=O)(=O)CC1(NC(=O)N[C@H](C(=O)N2C[C@H]3[C@@H]([C@H]2C(=O)NC(CC2CC2)C(=O)C(=O)NC2CC2)C3(C)C)C(C)(C)C)CCCCC1` (stereo partly drawn) [Compound 481] it is under 0.075 µM.
In the case of `CNC(=O)C(=O)[C@@H](CC1CC1)NC(=O)[C@@H]1[C@@H]2[C@H](CN1C(=O)[C@@H](NC(=O)NC1([C@H]3CCCS3(=O)=O)CCCCC1)C1(C)CCCCC1)C2(C)C` [Compound 883-ez], the Ki was under 0.075 µM.
On to `CCC[C@H](NC(=O)[C@@H]1[C@@H]2[C@H](CN1C(=O)[C@@H](NC(=O)NC1([C@H]3CCCS3(=O)=O)CCCCC1)C1(C)CCCCC1)C2(C)C)C(=O)C(=O)NC1CC1` [Compound 880], for which the Ki was under 0.075 µM.
For `C=CCNC(=O)C(=O)[C@H](CC1CC1)NC(=O)[C@@H]1[C@@H]2[C@H](CN1C(=O)[C@@H](NC(=O)NC1([C@@H]3CCCS3(=O)=O)CCCCC1)C1(C)CCCCC1)C2(C)C` [Compound 883-ae], the Ki was under 0.075 µM.
`C=CCNC(=O)C(=O)C(CCC)NC(=O)[C@@H]1[C@@H]2[C@H](CN1C(=O)[C@@H](NC(=O)NC1(C3CCCS3(=O)=O)CCCCC1)C(C)(C)C)C2(C)C` (stereo partly drawn) [Compound 618]: the Ki was under 0.075 µM.
Still for that read-out and setting: the value for `CCNC(=O)C(=O)C(CCC1CC1)NC(=O)[C@@H]1[C@@H]2[C@H](CN1C(=O)[C@@H](NC(=O)NC1([C@H]3CCCS3(=O)=O)CCCCC1)C(C)(C)C)C2(C)C` (stereo partly drawn) [Compound 883-es] was under 0.075 µM; that for `CC1([C@H](NC(=O)NC2(CS(=O)(=O)C(C)(C)COC3CCCCO3)CCCCC2)C(=O)N2C[C@H]3[C@@H]([C@H]2C(=O)NC(CCC2CC2)C(=O)C(=O)NC2CC2)C3(C)C)CCCCC1` (stereo partly drawn) [Compound 676] was under 0.075 µM.
For `CC(C)(C)[C@H](NC(=O)NC1(CS(=O)(=O)C(C)(C)C)CCCCC1)C(=O)N1C[C@H]2[C@@H]([C@H]1C(=O)NC(CCC1CC1)C(=O)C(=O)NCCC1CC1)C2(C)C` (stereo partly drawn) [Compound 567], the Ki is under 0.075 µM.
On the same count and under the same terms, the value for `C=CCNC(=O)C(=O)[C@H](CCC1CC1)NC(=O)[C@@H]1[C@@H]2[C@H](CN1C(=O)[C@@H](NC(=O)NC1(CS(=O)(=O)C(C)(C)CO)CCCCC1)C(C)(C)C)C2(C)C` [Compound 740] was under 0.075 µM.
In the case of `C=CCNC(=O)C(=O)[C@H](CCCC)NC(=O)[C@@H]1[C@@H]2[C@H](CN1C(=O)[C@@H](NC(=O)NC1(CS(=O)(=O)C(C)(C)CN3CCCC3)CCCCC1)C(C)(C)C)C2(C)C` [Compound 883-at], the Ki is under 0.075 µM.
Same read-out and setting: the value for `CCCC[C@H](NC(=O)[C@@H]1[C@@H]2[C@H](CN1C(=O)[C@@H](NC(=O)NC1(C3OCCCS3(=O)=O)CCCCC1)C(C)(C)C)C2(C)C)C(=O)C(=O)NCC1CC1` (stereo partly drawn) [Compound 883-co] was under 0.075 µM; that for `CCCCC(NC(=O)[C@@H]1[C@@H]2[C@H](CN1C(=O)[C@@H](NC(=O)NC1(CS(=O)(=O)C(C)(C)C)CCCCC1)C1(C)CCCCC1)C2(C)C)C(=O)C(=O)NC1CC1` (stereo partly drawn) [Compound 436] was under 0.075 µM; that for `CCCC[C@H](NC(=O)[C@@H]1[C@@H]2[C@H](CN1C(=O)[C@@H](NC(=O)NC1([C@H]3CCCS3(=O)=O)CCC(C)(C)CC1)C(C)(C)C)C2(C)C)C(=O)C(=O)NCC` [Compound 883-dv] was under 0.075 µM.
The same measure, in the same setting: the figure for `CC(C)(C)[C@H](NC(=O)NC1([C@H]2CCCS2(=O)=O)CCCCC1)C(=O)N1C[C@H]2[C@@H]([C@H]1C(=O)N[C@@H](CCC1CC1)C(=O)C(=O)NC1CC1)C2(Cl)Cl` [Compound 883-g] is under 0.075 µM; for `CCCC(NC(=O)[C@@H]1[C@@H]2[C@H](CN1C(=O)[C@@H](NC(=O)NC1(CS(=O)(=O)C(C)(C)COC3CCCCO3)CCCCC1)C(C)(C)C)C2(C)C)C(=O)C(=O)NC1CC1` (stereo partly drawn) [Compound 707] it is under 0.075 µM; for `CC1(C)CCS(=O)(=O)[C@H](C2(NC(=O)N[C@H](C(=O)N3C[C@H]4[C@@H]([C@H]3C(=O)N[C@@H](CCC3CC3)C(=O)C(=O)NC3CC3)C4(C)C)C(C)(C)C)CCCCC2)C1` [Compound 860] it is under 0.075 µM.
`C#CCCC(NC(=O)[C@@H]1[C@@H]2[C@H](CN1C(=O)[C@@H](NC(=O)NC1(CS(=O)(=O)C(C)(C)C)CCCCC1)C1(C)CCCCC1)C2(C)C)C(=O)C(=O)NCC#C` (stereo partly drawn) [Compound 445]: the Ki was under 0.075 µM.
Turning to `CCCC[C@H](NC(=O)[C@@H]1[C@@H]2[C@H](CN1C(=O)[C@@H](NC(=O)NC1(C3CCCCS3(=O)=O)CCCCC1)C(C)(C)C)C2(C)C)C(=O)C(=O)NC1CC1` (stereo partly drawn) [Compound 803], the Ki was under 0.075 µM.
On the same count and under the same terms, the value for `CCCNC(=O)C(=O)[C@H](CCC1CC1)NC(=O)[C@@H]1[C@@H]2[C@H](CN1C(=O)[C@@H](NC(=O)NC1([C@H]3CCCS3(=O)=O)CCCCC1)C1CCCCC1)C2(C)C` [Compound 883-bm] was under 0.075 µM.

The test is the same for the next values; noted with them: Table 4; read-out: Ki* range.
Take `C=CCNC(=O)C(=O)C(CCC)NC(=O)[C@@H]1[C@@H]2[C@H](CN1C(=O)[C@@H](NC(=O)N[C@H](CS(=O)(=O)N(C)C(C)(C)C)C(C)C)C(C)(C)C)C2(C)C` (stereo partly drawn) [Compound 1003]: the Ki is under 0.075 µM.
